From the RNAGym collection of RNA variant scans (doi:10.1093/nar/gkz1192) come the findings set out here.

The source gives no read counts; variants with many changes may rest on few reads.

B1: CPEB3 Ribozyme (parent)
chain: UAACAGGGGGCCACAGCAGAAGCGUUCACGUCGCAGCCCCUGUCAGAUUCUGGUGAAUCUGCGAAUUCUGCUGUAUAUCUC

This data set covers variants of B1. Briefly: self-cleavage, relative activity (ratio to wild type); higher = more cleavage; in vitro, sequencing. A digest of the protocol:
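Relative activity was defined as the cleaved/total read fraction for a variant divided by the same fraction for the unmutated ribozyme. CPEB3 self-cleaving ribozyme libraries were made by rounds of error-prone PCR, barcoded, and transcribed in vitro with T7 RNA polymerase for 5 hours at 37°C, and cleavage ran through transcription plus a 15 min DNase I step before EDTA. Illumina sequencing of template-switched reverse transcripts gave the reads, and DNA sequencing mapped the barcodes. Averages come from three batches, using variants with at least 5 reads.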
Take A3U G22U A47G U67C U69C: the self-cleavage came to 0.19.

Consider A3U A13U U25C G46A A64G, for which the self-cleavage was determined as 0.13.

For A3U A20G U25C G53A U72C A77U, the self-cleavage was determined as 0.21.

On to A3U A20G A21U A64G, for which the self-cleavage was 0.25.

Take A3U U25C U67C U78C: the self-cleavage turned out to be 0.24.

For the variant A3U U25C G30A U43A A64U, the self-cleavage came to 0.15.

In the case of A3U C14U G33A A77G C79G, the self-cleavage stood at 0.28.

With A3G U31C U41A U51C G53U, the self-cleavage was 0.44.

As for A3U G46A U69G, the self-cleavage is 0.21.

Consider A3U A45U A56G A64G U80C, for which the self-cleavage is 0.17.

For the variant A3G U31G A47G A57G, the self-cleavage turned out to be 0.37.

Take A3U A45G A64U: the self-cleavage is 0.31.

Turning to A3G U41C A47G, the self-cleavage came to 1.

With A3G U48C U67G, the self-cleavage came to 0.26.

As to A3U A18U A20G U58A U66C C79A, the self-cleavage turned out to be 0.07.

With A3G U48C U74A, the self-cleavage came out at 1.11.

With A3G U43C U54C U66A U78A, the self-cleavage is 0.15.

For the variant A3U G10A G19C U25C U69G A77G, the self-cleavage was 0.12.

A3G U31A A45G U51A U54A G61A: the self-cleavage was 0.24.

A3U A18U G24U A45G: the self-cleavage came to 0.15.

With A3U C27U C32U U60A, the self-cleavage came out at 0.15.

Take A3G U60C U67C G70C: the self-cleavage worked out at 0.26.

Turning to A3U A18G A28G C39U U54C, the self-cleavage was found to be 0.53.

For the variant A3U G6U C23U A64G, the self-cleavage amounted to 0.1.

Turning to A3G U43C U58G A65C, the self-cleavage is 0.07.

For the variant A3G U72G U74C, the self-cleavage turned out to be 1.21.

For the variant A3U A15G A45G A64U, the self-cleavage stood at 0.05.

Turning to A3U A28U U41C U78C, the self-cleavage was determined as 0.88.

Take A3U A18G U43C U60C: the self-cleavage amounted to 0.14.

On to A3G U41A U80C, for which the self-cleavage turned out to be 0.56.

Take A3G U31C C62U: the self-cleavage was found to be 0.43.

Turning to A3U A15C U48C U58A U67C, the self-cleavage came to 0.24.

Turning to A3G U60A U74C, the self-cleavage was 0.89.

On to A3U A20G U49C U54C, for which the self-cleavage was found to be 0.41.

Consider A3U G8A A28G, for which the self-cleavage came to 0.31.

With A3U A47G U69A U72C, the self-cleavage stood at 0.52.

Turning to A3U A5C A21U G42U, the self-cleavage turned out to be 0.07.

As to A3G U31A U48C U49C U66A A77G, the self-cleavage is 0.08.

With A3U C11A U72A U78C, the self-cleavage was 0.28.

For the variant A3U G9A U26A U54G U80A, the self-cleavage came to 0.08.

A3G U31A G33C A65G: the self-cleavage was 0.11.

Turning to A3U A18U U25C U41C, the self-cleavage was determined as 0.57.

For the variant A3G U51A U72C, the self-cleavage worked out at 1.19.

As to A3G U51A U72G, the self-cleavage amounted to 0.8.

For A3U C11A U43C A56G G63A U72C U74C, the self-cleavage was determined as 0.09.

With A3U A28G U48C G73A U74C, the self-cleavage was determined as 0.68.

Turning to A3G U31C U43C A47G A56G U60C, the self-cleavage was 0.

Regarding A3U C38U U69C A75G, the self-cleavage amounted to 0.42.

As for A3G U41C U51A A77G, the self-cleavage turned out to be 1.14.

Regarding A3U C14A A57G C71G U72A, the self-cleavage came to 0.55.

Regarding A3G U26C U60C U69A, the self-cleavage was 0.25.

Take A3U A57G A65G: the self-cleavage stood at 0.19.

In the case of A3G U54C U69C, the self-cleavage is 0.46.

Regarding A3U A47U U54C, the self-cleavage was determined as 0.32.

As for A3U U25C U43A U54A U67A A77C, the self-cleavage came to 0.13.

With A3G U31C A45C G63C U67C, the self-cleavage was 0.1.

Consider A3G U67A U78C, for which the self-cleavage was determined as 0.49.

For the variant A3G U51C A56G U74C U78C, the self-cleavage is 1.2.

As to A3U G10C A20G A28G U41A G70A, the self-cleavage was 0.09.

Consider A3U G8A U26C U60A U80C, for which the self-cleavage was 0.38.

Take A3U U26A A47G U49C: the self-cleavage came out at 0.43.

As to A3U U26A G33U U58A, the self-cleavage was determined as 0.14.

With A3G U58C U67A, the self-cleavage was 0.16.

As for A3U A18G U48G A57G U72C, the self-cleavage is 0.27.

For the variant A3U A13U U58A A64U, the self-cleavage was 0.2.

Take A3G U54C C59U U67C U69A: the self-cleavage came to 0.

In the case of A3U A28G C29A U74A, the self-cleavage worked out at 0.49.

For A3U A13G C17G U25C U26C, the self-cleavage came to 0.53.

In the case of A3U A13G A56G A57G U66A U72C, the self-cleavage was 0.33.

Turning to A3G U49A A65G, the self-cleavage turned out to be 0.37.

With A3U G9U A15G U48C A56G U72C, the self-cleavage turned out to be 0.23.

As to A3U A18G A35G U41C U66C, the self-cleavage was determined as 0.33.

A3U A18G U41C U66C: the self-cleavage was 0.21.

Turning to A3U G16U A20G G46C, the self-cleavage amounted to 0.28.

Regarding A3U C12U A15G, the self-cleavage turned out to be 0.55.

Turning to A3U A5G A45U U76C, the self-cleavage turned out to be 0.22.

Consider A3G U41C A56U C62U, for which the self-cleavage turned out to be 0.36.

For the variant A3U U25C U41A A45C U78C, the self-cleavage worked out at 0.36.

For the variant A3U A75G A77U, the self-cleavage was determined as 1.08.

Turning to A3U G24U G36U U51C G55A A56U U66C, the self-cleavage was found to be 0.24.

For A3G U41C U54A U72A, the self-cleavage came out at 1.01.

For A3U A15G A20U U49C U51C, the self-cleavage was found to be 0.29.

Regarding A3U A35U U76C U80A, the self-cleavage worked out at 0.96.

On to A3G U31C A64G U76A A77G, for which the self-cleavage was 0.64.
